Measured values taken from paper PMC7212925.

Molecular target: AXL C-terminally fused to LgBiT or SmBiT (NanoBiT construct) (human), P30530
Assay: split reporter (BiFC, NanoBiT); NanoBiT complementation in live U87 cells incubated with ligand (Gas6 for AXL, EGF for EGFR; concentration series or 10 nM); signal as ratio to the untreated control
Conditions: remark: other sources report otherwise

EC50 of Gas6 for AXL dimerization: 0.6 nM
B1: AXL C-terminally fused to LgBiT or SmBiT (NanoBiT construct) (receptor)
chain: [sequence of about 450 residues not given]YVLLGAVVAAACVLILALFLVHRRKKETRYGEVFEPTVERGELVVRYRVRKSYSRRTTEATLNSLGISEELKEKLRDVMVDRHKVALGKTLGEGEFGAVMEGQLNQDDSILKVAVKTMKIAICTRSELEDFLSEAVCMKEFDHPNVMRLIGVCFQGSERESFPAPVVILPFMKHGDLHSFLLYSRLGDQPVYLPTQMLVKFMADIASGMEYLSTKRFIHRDLAARNCMLNENMSVCVADFGLSKKIYNGDYYRQGRIAKMPVKWIAIESLADRVYTSKSDVWSFGVTMWEIATRGQTPYPGVENSEIYDYLRQGNRLKQPADCLDGLYALMSRCWELNPQDRPSFTELREDLENTLKALPPAQEPDEILYVNMDEGGGYPEPPGAAGGADPPTQPDPKDSCSCLTAAEVHPAGRYVLCPSTTPSPAQPADRGSPAAPGQEDGA
